# PubChem BioAssay AID602310 (National Center for Advancing Translational Sciences (NCATS), 2012)
# Among all 410,000 compounds or so, about 310 (0.076%) were called active. The inconclusive results got no clear call from the source; some entries with a clear call stand among them for comparison. Calls come from the whole dose curve; as a rule, active = well fitted curve in the direction sought with a large enough effect; inconclusive = small, poorly fitted or top-dose-only effect; inactive = flat fitted curve, though single readings scatter. Potencies beside an inconclusive call are fits to weak or partial responses and may not hold up.
# Target: DNA dC->dU-editing enzyme APOBEC-3G (Homo sapiens) (UniProt Q9HC16)
# Assay: qHTS for Inhibitors of Vif-A3G Interactions: qHTS; note: nearly all actives have a fitted effect of over 60% in size
# Details: HeLa A3G-eYFP + Vif (tagged APOBEC3G with the HIV-1 protein that degrades it), YFP fluorescence, overnight; series mostly up to 46.1 µM
# In short: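 HeLa cells stably expressing Vif and C-terminally eYFP-tagged A3G, seeded overnight at 37 deg C, then exposed to compound by pintool overnight at 37 deg C. Rise in yellow fluorescence (Ex 488/Em 500-530, Acumen) marks blocked Vif-driven A3G degradation.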
# Potency is the fitted concentration of half-maximal effect; tags give direction and shape of the fitted curve.
# Sequence of UniProt Q9HC16 (Q9HC16 whole entry, looked up): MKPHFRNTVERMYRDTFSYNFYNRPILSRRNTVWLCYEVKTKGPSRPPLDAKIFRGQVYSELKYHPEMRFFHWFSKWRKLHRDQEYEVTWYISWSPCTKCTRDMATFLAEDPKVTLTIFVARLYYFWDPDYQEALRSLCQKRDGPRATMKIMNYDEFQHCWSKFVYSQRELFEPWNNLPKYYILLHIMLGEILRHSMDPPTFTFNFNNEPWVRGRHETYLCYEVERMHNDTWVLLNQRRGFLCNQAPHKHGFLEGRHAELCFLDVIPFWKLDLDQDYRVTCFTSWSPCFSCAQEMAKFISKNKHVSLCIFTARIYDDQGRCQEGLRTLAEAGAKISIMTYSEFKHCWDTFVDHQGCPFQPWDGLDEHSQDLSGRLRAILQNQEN
row,SMILES,Potency
1,O=C(c1cccnc1)N1CCN(Cc2ccccc2Br)CC1,inactive
2,CCN(CC)c1ccc(/C=N/NC(=O)c2ccco2)c(O)c1,"inconclusive: 11.2 µM [inhibitor, partial curve]"
3,Cc1ccc(C)c(NC(=O)CCCN2C(=O)C(c3ccccc3)Oc3cccnc32)c1 (stereo not given),"inconclusive: 35.5 µM [inhibitor, partial curve, poor fit]"
4,CC(=O)c1cccc(-c2csc3ncnc(Sc4nnnn4C)c23)c1,"inconclusive: 11.2 µM [inhibitor, single point]"
5,O=c1c2ccccc2c(/C=N/NS(=O)(=O)c2ccccc2)c(O)n1-c1ccccn1,"inconclusive: 2.51 µM [inhibitor, partial curve, poor fit]"
6,CC(C)(C)C(=O)Cn1ncc(Cl)c(Cl)c1=O,"inconclusive: 22.4 µM [inhibitor, single point]"
7,CC(=O)c1cccc(NC(=S)N2c3ccccc3CC2C)c1 (stereo not given),active: 8.91 µM
8,CCOC(=O)c1cc(-c2ccc(F)cc2)n(CCC(=O)NC2CCCCC2)c1C,inactive
9,COc1ccc(CCc2ccnc3ccccc23)cc1,inactive
10,COc1ccc(CNC(=O)C2Cc3c(-c4ccc5c(c4)OCO5)ccnc3O2)cc1OC (stereo not given),"inconclusive: 6.31 µM [inhibitor, partial curve, poor fit]"
11,CC1=CC(C)(C)Nc2ccc(OC(=O)CN3C(=O)c4ccccc4C3=O)cc21,"inconclusive: 20 µM [inhibitor, single point]"
12,O=C(NCc1ccco1)C1CC(c2cc(C(F)(F)F)cc(C(F)(F)F)c2)=NO1 (stereo not given),"inconclusive: 1.58 µM [inhibitor, full curve, poor fit]"
13,CCCCSc1nc(O)c(C2OC(=O)c3c2ccc(OC)c3OC)c(=O)n1-c1ccccc1 (stereo not given),"inconclusive: 35.5 µM [inhibitor, single point]"
14,c1coc(-c2cc3nc(NC4CCCCC4)ccn3n2)c1,"inconclusive: 28.2 µM [inhibitor, single point]"
15,O=C1OCC2=C1C(c1ccc3c(c1)OCO3)c1cc3c(cc1O2)OCO3 (stereo not given),"inconclusive: 1.26 µM [inhibitor, full curve, poor fit]"
16,COc1ccc(-c2c(C#Cc3ccsc3)c3ccccc3n2C)cc1,inactive
17,Cc1ccc(O)c(NC(=O)CCS(=O)(=O)c2nc(-c3ccc4c(c3)OCO4)cc(C(F)(F)F)n2)c1,"inconclusive: 35.5 µM [inhibitor, single point]"
18,CCOc1ccc2c(c1)C(C)=CC(C)(C)N2S(=O)(=O)c1ccc(NC(C)=O)cc1,"inconclusive: 0.355 µM [inhibitor, full curve, poor fit]"
19,CCN(CC)CCN(C(=O)/C=C/c1cccs1)c1nc2ccc(OC)cc2s1,inactive
20,c1ccc(Nc2nc(N3CCCCC3)nc(N3CCCCC3)n2)cc1,inactive
21,Cc1sc2nc(SCC(=O)Nc3ccc(S(N)(=O)=O)cc3)[nH]c(=O)c2c1C,inactive
22,Cc1ccc(-c2cc(C(=O)N3CCOCC3)c3ccccc3n2)o1,inactive
23,Cc1cc2nc3c(=O)n(C4CCCCC4)c(=O)[nH]c3nc2cc1N,active: 8.91 µM
24,O=C1CCCc2cc3c(cc21)CC1(C3)Cc2cc3c(cc2C1)C(=O)CCC3,"inconclusive: 1.58 µM [inhibitor, full curve, poor fit]"

row,SMILES,Potency
1,O=S(=O)(NC(=S)NC1CCCCC1)c1ccc(Cl)cc1,inactive
2,CC(C)(C)S(=O)N1Cc2cc(C(=O)N3CCOCC3)nc(-c3cccc(Br)c3)c2[C@@H]1CCO (stereo not given in full),inactive
3,CC(=O)c1c(C)[nH]c(C(=O)Nc2ccc(S(=O)(=O)N(C)C)cc2)c1C,inactive
4,Cc1nnc(NC(=O)CSc2nc(C(C)C)nc3ccccc23)s1,"inconclusive: 3.55 µM [inhibitor, full curve, poor fit]"
5,CC12CC3CC(C)(C1)CC(C(=O)NC(=S)N1CCOCC1)(C3)C2,active: 10 µM
6,COc1ccc(N2CCN(C(=O)CSc3nnc4c(C)cc5ccc(C)c(C)c5n34)CC2)cc1,inactive
7,Cc1cc(NC(=O)COC(=O)C(Nc2ccc(C(F)(F)F)cc2Cl)C(C)C)no1 (stereo not given),"inconclusive: 35.5 µM [inhibitor, single point]"
8,CCn1c2ccccc2c2cc(/C=N/NC(=O)c3cccc(C)c3)ccc21,"inconclusive: 3.98 µM [inhibitor, full curve]"
9,COCc1cc(N2CCOCC2)nc(SCc2ccc(Cl)cc2)n1,inactive
10,C=CCN(C(=O)CSc1nc2c(sc3ccccc32)c(=O)n1CCN(CC)CC)c1ccccc1,"inconclusive: 35.5 µM [inhibitor, single point]"
11,COc1ccccc1N1CCN(S(=O)(=O)c2c(C)sc3ncn(CC(=O)N(C)c4ccc(Cl)cc4)c(=O)c23)CC1,inactive
12,CCc1ccc(S(=O)(=O)/N=C2\C=C(Nc3ccc(C(=O)O)cc3)C(=O)c3ccccc32)cc1,inactive
13,Cc1ccc(NC(=O)Cn2c(=O)n(CCC(=O)NCc3ccccc3Cl)c(=O)c3ccccc32)cc1,"inconclusive: 22.4 µM [inhibitor, single point]"
14,CC1CCN(S(=O)(=O)c2nnc(NC(=O)c3cccc(Br)c3)s2)CC1,inactive
15,Cc1ccc(C(=O)NC(C(=O)Nc2cccc(S(N)(=O)=O)c2)C(C)C)cc1 (stereo not given),inactive
16,O=C1CCN(Cc2ccccc2)CCN1[C@H](CO)Cc1ccccc1,inactive
17,CC(C)S(=O)(=O)c1csc(NC(=O)Nc2cc(Cl)ccc2Cl)c1Cl,inactive
18,COC(=O)c1ccc2c(c1)C(C)(C)C(/C=C/c1ccccc1O)=[N+]2C,"inconclusive: 22.4 µM [inhibitor, single point]"
19,CC(=O)Nc1cccc(-c2ccnc3c2CC(C(=O)NCCC(F)(F)F)O3)c1 (stereo not given),"inconclusive: 35.5 µM [inhibitor, single point]"
20,CC(C)C1C(C#N)=C(N)Oc2n[nH]c(-c3ccc4ccccc4c3)c21 (stereo not given),"inconclusive: 1.41 µM [inhibitor, full curve, poor fit]"
21,CCCC1(CCC)NC(=O)N(CC(=O)Nc2ccc(Cl)c(S(=O)(=O)N3CCOCC3)c2)C1=O,inactive
22,COc1ccccc1NC1=NC(c2ccc(Cl)cc2)N=C(N)N1 (stereo not given),"inconclusive: 7.08 µM [inhibitor, partial curve]"
23,CCN1CCc2nc3sc(C(=O)c4ccc(F)cc4)c(N)c3cc2C1,"inconclusive: 22.4 µM [inhibitor, single point]"
24,Cc1nc(-n2[nH]c3c(c2=O)CCCC3)[nH]c(=O)c1Cc1ccccc1,"inconclusive: 15.8 µM [inhibitor, single point]"

row,SMILES,Potency
1,Cc1cc(C)cc(-n2c(SCC(N)=O)nc3c([nH]c4ccccc43)c2=O)c1,"inconclusive: 22.4 µM [inhibitor, single point]"
2,c1ccc(-c2csc(NNC3=NCCCCC3)n2)cc1,inactive
3,COc1ccc(-c2n[nH]c(=S)n2-c2ccc(C)cc2)cc1,inactive
4,Cc1c(=O)n(OCc2cccc(F)c2)c2ccccc2[n+]1[O-],"inconclusive: 25.1 µM [inhibitor, single point]"
5,Cc1cccc(NC(=S)NCCC(c2ccccc2)c2ccccc2)c1,inactive
6,CN(C)c1ccc(/C=C(/C(=O)c2ccc(Cl)cc2Cl)n2cncn2)cc1,active: 12.6 µM
7,CC(/C=N/NC(=O)c1cc(C(C)C)[nH]n1)=C\c1ccccc1,"inconclusive: 20 µM [inhibitor, partial curve, poor fit]"
8,Cn1c(/C(C#N)=C/c2ccc(-c3ccc(S(N)(=O)=O)cc3)o2)nc2ccccc21,"inconclusive: 2.51 µM [inhibitor, partial curve, poor fit]"
9,CC(C)c1cc(C(=O)Nc2sc3c(c2C#N)CCC3)no1,"inconclusive: 10 µM [inhibitor, partial curve]"
10,COc1ccc(NC(=O)C2CC(=O)N(C)C(=Nc3ccc4c(c3)OCO4)S2)cc1 (stereo not given),"inconclusive: 35.5 µM [inhibitor, partial curve, poor fit]"
11,Cc1ccc2c(c1)[C@H]1[C@H](CO2)[C@H](c2ccccc2)[C@]2(C)C(=O)Nc3cc(Cl)ccc3C(=O)N12,"inconclusive: 3.16 µM [inhibitor, full curve]"
12,Cc1cccc(-n2ncc3c(NCc4ccccc4)ncnc32)c1,"inconclusive: 3.16 µM [inhibitor, full curve]"
13,CC(=O)N1CCc2cc3nc(C)cc(C)c3cc21,"inconclusive: 3.55 µM [inhibitor, single point]"
14,O=C(N/N=C/c1ccc([N+](=O)[O-])cc1)c1cc(C2CC2)nc2ccccc12,"inconclusive: 8.91 µM [inhibitor, partial curve]"
15,N#Cc1ccc(Nc2nc(-c3ccc(O)cc3O)cs2)cc1C(F)(F)F,"inconclusive: 35.5 µM [inhibitor, single point]"
16,COc1ccc(Cn2c(=O)oc3ccc(C)cc32)cc1OC,inactive
17,O=C(CSc1nc(C2CC2)nc2ccccc12)N1CCCCC1,"inconclusive: 35.5 µM [inhibitor, single point]"
18,Cc1nc(CSc2nsc(/C=C/N(C)C)c2C#N)cs1,"inconclusive: 3.16 µM [inhibitor, full curve, poor fit]"
19,O=C(NCc1ccccc1)c1ccc(CS(=O)Cc2cccc(Cl)c2)o1 (stereo not given),inactive
20,CCN(CC)c1ccc(/C=C(/C#N)C(=O)NC(C)C)o1,"inconclusive: 17.8 µM [inhibitor, single point]"
21,O=C(c1cccc(S(=O)(=O)N2CCCC2)c1)N1CCN(c2ccccc2)CC1,"inconclusive: 10 µM [inhibitor, partial curve, poor fit]"
22,Cc1cccc(OCCOC(=O)c2c(-c3ccccc3)noc2C)c1,"inconclusive: 5.62 µM [inhibitor, full curve, poor fit]"
